In PubChem BioAssay AID1508642 (National Center for Advancing Translational Sciences (NCATS), 2021):
Hit rate of the full screen: of about 43,000 compounds, about 200 (0.47%) were called active. Roughly 12% stayed inconclusive and do not appear here. Calls follow the shape of the dose curve; as a rule, active = well fitted cell-killing curve with a large enough effect; inconclusive = small, poorly fitted or top-dose-only effect, or effect the other way; inactive = flat fitted curve, though single readings scatter. Some of the results follow.

Experiment: Cell viability qHTS assay in S16 Pmp22-F2sN cells; also: nearly all actives have a fitted effect of over 65% in size
Settings: S16 Pmp22-F2sN Schwann cells (luciferase reporters placed in the Pmp22 gene) viability, CellTiter-Glo, 24 h; series mostly up to 57.5 µM; activity change, negative = cytotoxicity: at the top concentration
Outline: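 Luminescence from CellTiter-Glo, read by CCD camera after a 15 min room-temperature incubation, served as the viability signal. Reporter Schwann cells (S16 Pmp22-F2sN) had been treated with pin-transferred compounds for 24 h at 37C.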
% is scaled to controls: 0 for no effect and ±100 for the full control effect.

Structure (SMILES) | activity change, negative = cytotoxicity
Cc1ccc(-c2ccc(=O)n(Cc3cc(C)ccc3C)n2)cc1 | inactive: -11.6%
CCC(CC)C(=O)NC1CC(=O)N(c2ccc3c(c2)OCCO3)C1 (configuration not stated) | inactive: 12.2%
Cc1nc(-c2ccccc2)sc1-c1ccc(SCC(=O)NCc2ccc(F)cc2)nn1 | inactive: 6.61%
Cn1c(=O)c2c(SCC(=O)N3CCc4ccccc43)nc(-c3ccccc3Cl)nc2n(C)c1=O | inactive: 21.7%
CCN(c1cc(C)cc(C)c1)S(=O)(=O)c1nnc(NC(=O)c2cccs2)s1 | inactive: 1.37%
CCOc1ccc(-n2c(CCC(=O)O)ccc2-c2ccc(Br)cc2)cc1 | inactive: -0.951%
CCOc1ccc(-n2c(SCC(=O)N3CCCC3)nc3c([nH]c4ccccc43)c2=O)cc1 | inactive: 10.4%
COc1ccc(-c2cc(C(F)(F)F)c(C#N)c(SCC(=O)Nc3ccc(F)cc3)n2)cc1 | inactive: -16.1%
COc1ccc(-c2cn3nc(N4CCC(C(=O)NCc5ccccc5F)CC4)sc3n2)cc1 | inactive: 8.4%
Cc1ccc(NCc2cccn2-c2nnc(N3CCC(C(=O)NC(C)C)CC3)s2)cc1 | inactive: -21%
CCc1ccc(CNC(=O)c2ccc3c(c2)N=C(C)c2cc(C)ccc2S3)cc1 | inactive: -17.9%
CN(C)CCNC(=O)c1ccc(-n2c(-c3ccccc3)cc3c2CCCC3)cc1 | inactive: 26.4%
COc1ccc(CNc2ncnc3onc(C)c23)cc1 | inactive: -25.5%
COc1ccc(NC(=O)Cn2c(=O)oc3cc(S(=O)(=O)NC4CCCC4)ccc32)cc1OC | inactive: -0.715%
CCCNC(=O)c1ccc2c(c1)ncn2-c1ccc(C)cc1C | inactive: -14.4%
CCOC(=O)c1c(NC(=O)CS(=O)(=O)c2ccc(C)cc2)sc2c1CCCCC2 | inactive: 0.0492%
Cc1ccc(S(=O)(=O)C(CNC(=O)C(=O)NCc2ccc(Cl)cc2)c2cccs2)cc1 (configuration not stated) | inactive: 13.1%
CC(=O)c1ccc(NC(=O)c2cn3c4c(ccc(Cl)c4c2=O)OC(C)C3)cc1 (configuration not stated) | inactive: -0.29%
CCC(=O)N1c2ccc(S(=O)(=O)N3CCN(c4ccccc4)CC3)cc2CC1C (configuration not stated) | inactive: 0.344%
Cc1ccc(C(=O)NCCn2c(C)cc3ccccc32)cc1C | inactive: 14.5%
Cc1cc(C)cc(-n2nnc(-c3nc(-c4ccc5c(c4)OCO5)no3)c2C)c1 | inactive: 1.85%
COc1cccc(C(=O)NCCSc2c(-c3ccc(F)cc3)[nH]c3ccccc23)c1OC | inactive: -23.8%
Cc1ccc(CNC(=O)C2CCCN(S(=O)(=O)c3ccc4c(c3)oc(=O)n4C)C2)cc1 (configuration not stated) | inactive: 2.94%
CC(Oc1ccc(F)cc1)C(=O)NCC1(N(C)C)CCCCC1 (configuration not stated) | inactive: -2.3%
Cc1ccc(S(=O)(=O)c2cn(CC(=O)Nc3ccc(C)c(Cl)c3)c3ccc(C)cc3c2=O)cc1 | inactive: 6.15%

Structure (SMILES) | activity change, negative = cytotoxicity
Cc1c(NC(=O)c2ccc(OC(C)C)cc2)cccc1-c1nc2ncccc2o1 | inactive: 2%
CC(C)Cn1c(=O)c2ccccc2n2c(CCC(=O)Nc3cccc(Cl)c3)nnc12 | inactive: 0.542%
CCOC(=O)c1cnc2cc(-c3ccc(Cl)cc3)nn2c1-c1ccccc1 | inactive: 8.65%
CC(=O)c1cc(-c2ccccc2)n(CC(=O)NC2CCCCC2)c1C | inactive: 3.08%
O=C(Cc1ccc(F)cc1)NC1CC(=O)N(c2ccccc2)C1 (configuration not stated) | inactive: 0.99%
CCOc1ccc(Cn2nnc3c(=O)[nH]c(C4CCN(C(=O)c5ccccc5)CC4)nc32)cc1 | inactive: -19.6%
O=C1Nc2c(c(=O)[nH]c(=O)n2-c2ccccc2)C1(NS(=O)(=O)c1ccc(Cl)cc1)C(F)(F)F (configuration not stated) | inactive: 3.98%
CCCOc1ccc(-c2nn(-c3ccccc3)cc2C2NC(=O)NC(C)=C2C(=O)OC(C)C)cc1 (configuration not stated) | inactive: -6.88%
CC1CCCCN1CCCNC(=O)Cn1ncc2c([nH]c3ccccc32)c1=O (configuration not stated) | inactive: 8.48%
Cc1cccc(CNS(=O)(=O)c2ccc3[nH]c(=O)ccc3c2)c1 | inactive: 18.2%
CCC(CC)c1nn2c(=O)cc(COc3ccc(NC(=O)c4ccccc4Cl)cc3)nc2s1 | inactive: 19%
NC(=O)c1cc(S(=O)(=O)N2CCN(c3ccc(F)cc3)CC2)cs1 | inactive: -4.01%
Cc1ccccc1CNC(=O)C1CCN(c2nn3cc(-c4ccc(F)cc4)nc3s2)CC1 | inactive: 2.42%
COc1ccc(Cn2c(=O)[nH]c3cc(C(=O)N4CCN(c5cc(C)ccc5C)CC4)ccc3c2=O)cc1 | inactive: -13.6%
COc1ccc(C)cc1NC(=O)c1cc(S(=O)(=O)NC2CCCCCC2)ccc1F | inactive: -15.7%
O=C(Nc1ccc(Br)cc1)C1CCN(c2cnccn2)CC1 | inactive: -16.1%
COc1cc(OC)c(Nc2cc(C)nc3ncnn23)cc1Cl | inactive: -7.73%
CCc1nn2c(=O)cc(COC(=O)CNC(=O)c3ccccc3)nc2s1 | inactive: -19.1%
O=C(COc1ccccc1F)OCc1cc(=O)n2nc(-c3cccs3)sc2n1 | inactive: -36.9%
CCC(C(=O)N1CCN(c2ccccc2)CC1)n1nc(C)n2c(cc3sccc32)c1=O (configuration not stated) | inactive: -19.8%
CCOc1ccc(C(=O)Nc2cccc(NC(=O)c3ccco3)c2)cc1Cl | inactive: -20%
COc1ccccc1CNC(=O)c1ccc(N2CCCC2)c(NC(=O)NCc2ccccc2)c1 | inactive: 6.99%
CCN(CC)S(=O)(=O)c1nnc(NC(=O)COc2ccccc2Cl)s1 | inactive: 3.62%
COc1ccc(OC)c(NC(=O)CSc2ccnc(=O)[nH]2)c1 | inactive: -2.94%
COc1ccccc1-c1cc(C(=O)Nc2sc3c(c2C#N)CCCC3)no1 | inactive: 3.77%

Structure (SMILES) | activity change, negative = cytotoxicity
Cn1c(=O)oc2cc(S(=O)(=O)CCC(=O)N3CCN(c4ccccc4)CC3)ccc21 | inactive: -4.03%
CCOc1ccc(CCNC(=O)CN2C(=O)C(CC)Oc3ccccc32)cc1OCC (configuration not stated) | inactive: 8.44%
COc1ccc(C2CC(c3c(O)n(C4CCCCC4)c(=O)[nH]c3=O)=Nc3ccccc3S2)cc1 (configuration not stated) | inactive: -0.846%
Cc1ccc2c(c1)NC(=O)C(CC(=O)Nc1cc(Cl)ccc1C)O2 (configuration not stated) | inactive: 3.83%
CCOC(=O)C1CCCN(c2nc3c(S(=O)(=O)c4ccc(C)c(C)c4)nnn3c3ccc(Cl)cc23)C1 (configuration not stated) | inactive: -2.59%
CCn1c(=O)c2sccc2n2c(CCC(=O)Nc3cc(C)cc(C)c3)nnc12 | inactive: -7.46%
COc1cccc(C(=O)Nc2cc3c(cc2C(=O)c2ccc(C)cc2)OCCO3)c1 | inactive: -1.73%
COc1ccc(-c2nc(CS(=O)CC(=O)NCc3ccccc3OC)c(C)o2)cc1 (configuration not stated) | inactive: -18.3%
COc1ccc2c(c1)CC(C(=O)NCCCN1CCN(c3ccc(F)cc3)CC1)CO2 (configuration not stated) | inactive: -0.136%
COc1cccc(N2CCN(C(=O)C3CCN(S(=O)(=O)c4ccc5c(c4)oc(=O)n5C)CC3)CC2)c1 | inactive: 10.1%
Cn1c(=O)oc2cc(S(=O)(=O)Nc3ccc(C(=O)O)cc3)ccc21 | inactive: -3.55%
Cc1cc(C)c2c(CC(=O)N(Cc3ccccc3)C3CCS(=O)(=O)C3)coc2c1 (configuration not stated) | inactive: -3.22%
Cc1cc(C)cc(OCC(=O)Nc2ccc(-c3nc4ccccc4o3)cc2)c1 | inactive: 15.9%
COc1ccccc1CNC(=O)c1ccc(-c2nc(CN3CCc4ccccc43)c(C)o2)cc1 | inactive: -6.29%
COc1ccc(NC(=O)c2cccn2-c2nnc(N3CCCCC3)s2)cc1 | inactive: -13.4%
CCCSCCCNC(=O)c1ccc2nc(Cc3ccccc3)oc2c1 | inactive: -22.3%
CCc1ccc(CNC(=O)CN2CCSc3ccccc32)cc1 | inactive: -19.2%
Cc1ccc(NC(=O)C(=O)NCC2(c3ccccc3)CCCC2)cc1Cl | inactive: 8.11%
O=C(NCCc1ccccc1)c1cnn(-c2ccc(F)cc2)c1-n1cccc1 | inactive: -3.79%
CCOC(=O)N1CCc2c(sc3c2c(=O)n(CCc2ccccc2)c(=O)n3Cc2c(F)cccc2Cl)C1 | inactive: 16%
Cc1ccc(NC(=O)CSc2nc3n[nH]c(C)c3c(=N)n2-c2cccc(C)c2)cc1 | inactive: -15.9%
O=C(CN1C(=O)COc2ccc(S(=O)(=O)N3CCCCCC3)cc21)NCc1ccc(F)cc1 | inactive: 3.94%
Cc1cc(C)cc(Oc2nc3c(c(=O)n(C)c(=O)n3C)n2Cc2ccc(F)cc2)c1 | inactive: -2.98%
CCOC(=O)c1ccccc1NC(=O)N(C)CCc1c(C)nn(CC)c1C | inactive: -4.81%
COc1ccc(F)cc1S(=O)(=O)NCCc1sc2nc(-c3ccc(F)cc3)nn2c1C | inactive: -22.8%

Structure (SMILES) | activity change, negative = cytotoxicity
CCc1nnc(SCC(=O)Nc2ccc(F)cc2F)c2cc3sc(C)cc3n12 | inactive: -2.74%
COc1ccc(N2CCN(c3oc(/C=C/c4cc(OC)c(OC)c(OC)c4)nc3C#N)CC2)cc1 | inactive: 11.9%
COc1cc(C(=O)Nc2ccc3oc(-c4ccc(C)c(Br)c4)nc3c2)cc(OC)c1OC | inactive: -0.34%
COc1ccc(Nc2cc(C(=O)NCc3ccccc3OC)c3ccccc3n2)cc1 | inactive: -3.16%
Cc1cc(OCC(=O)N(Cc2sccc2C)C2CCS(=O)(=O)C2)ccc1Cl (configuration not stated) | inactive: -7.88%
COc1ccc(CNC(=O)CN2C(=O)c3cccnc3Oc3ccc(C)cc32)cc1 | inactive: 2.52%
Cc1cc(C)c2c(CC(=O)Nc3c(C(=O)Nc4ccc(Cl)cc4)oc4ccccc34)coc2c1 | inactive: 2.88%
CCc1cccc(C)c1NC(=O)CSc1nnc(CC)n2c1cc1occc12 | inactive: 6.77%
CC(C(=O)NCc1ccccc1F)n1ccc2cc(S(=O)(=O)N3CCCC3)ccc21 (configuration not stated) | inactive: -5.88%
CCOc1ccccc1NC(=O)c1c(NC(=O)c2cccc(C)c2)sc2c1CCCC2 | inactive: 26.5%
CC1CN(C(=O)Nc2ccc(C(=O)NCc3cccc(F)c3)cc2)c2ccccc2S1 (configuration not stated) | inactive: -2.13%
O=C(Nc1ccccc1Cl)N1CCC(CN2CCCCC2)CC1 | inactive: 11.1%
O=C(Nc1ccc(C(F)(F)F)cc1)C1CCCN(c2cnccn2)C1 (configuration not stated) | inactive: -4.72%
COc1ccccc1NC(=O)c1cc2c(=O)oc3ccc(C)cc3c2s1 | inactive: 6.44%
Cc1ccc(NC(=O)CSc2nc3c(oc4ccccc43)c(=O)n2-c2ccc(F)cc2)c(C)c1 | inactive: 11.5%
CCCCOc1ccccc1C(=O)N(Cc1ccc(C)o1)C1CCS(=O)(=O)C1 (configuration not stated) | inactive: -15.7%
O=C(O)CSc1c2c(nc3cc(C(=O)Nc4ccc(F)c(Cl)c4)ccc13)CCC2 | inactive: -2.43%
COc1ccc(Nc2ncc3c(n2)CCN(Cc2cc(Br)cs2)C3)c(OC)c1 | inactive: 20.4%
CC(C)c1ccc(S(=O)(=O)NCc2ccc3c(c2)CCN3C(=O)c2ccccc2)cc1 | inactive: -8.75%
COCCNC(=O)CSc1nc2cc3c(cc2c(=O)n1CCCCCC(=O)NCc1ccc(OC)cc1)OCO3 | inactive: 11.2%
COc1ccc(CNC(=O)c2ccc3c(c2)nc2n3CCC(C)C2)c(OC)c1 (configuration not stated) | inactive: 9.57%
CCOc1ccccc1NC(=O)Cn1nnc2sc(-c3ccccc3)cc2c1=O | inactive: 11.6%
